# Data from the BET-seq Pho4 binding data (Le et al. 2018).
# Some of the results follow. Values were computed here from the reads of four pooled replicates and scatter widely.
# Target: T1, Pho4 (S. cerevisiae) (UniProt P07270)
# T1 sequence: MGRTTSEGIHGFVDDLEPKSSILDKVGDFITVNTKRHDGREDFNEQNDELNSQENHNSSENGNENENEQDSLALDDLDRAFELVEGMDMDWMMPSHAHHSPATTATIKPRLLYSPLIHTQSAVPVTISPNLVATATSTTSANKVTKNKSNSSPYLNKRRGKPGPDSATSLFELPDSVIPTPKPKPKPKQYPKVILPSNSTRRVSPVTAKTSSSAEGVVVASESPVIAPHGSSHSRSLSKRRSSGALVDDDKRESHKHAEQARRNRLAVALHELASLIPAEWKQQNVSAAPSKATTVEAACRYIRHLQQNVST
# Test: relative binding free energy (BET-seq); higher = weaker binding
# Conditions: reference: library average
row,Sequence,relative binding free energy [kcal/mol]
1,TTGTTCACGTGAATTG,0.29
2,TGTTGCACGTGTCGTC,0.06
3,AGTTCCACGTGTGCGG,0.05
4,CAAGGCACGTGTTTTT,-0.07
5,AAAGCCACGTGTTGTT,-0.09
6,TTGTCCACGTGAGGGT,0.12
7,GGGGTCACGTGGGCGC,0.02
8,CTAATCACGTGTGTAT,0.24
9,GTTAGCACGTGGCGTC,-0.06
10,AGTAACACGTGTTTTG,0.08
11,TTATGCACGTGATTAT,0.11
12,GTGTGCACGTGTGGAC,0.12
13,TGGCTCACGTGTGTTT,0.29
14,TTGGGCACGTGTTGGT,0.02
15,TAGTGCACGTGGTACA,-0.16
16,ATCGGCACGTGAAGGG,0.09
17,TTGCACACGTGGAGTG,-0.11
18,TGCTTCACGTGTTATT,0.24
19,GGGGTCACGTGGTCCA,0.13
20,GAGGGCACGTGGATAT,-0.06
21,AGTTTCACGTGTAGGA,0.36
22,GCTTGCACGTGAGGTG,0.21
23,TATGGCACGTGCTTTG,-0.3
24,GGGTTCACGTGTGTGC,0.37
25,ACGTGCACGTGCTTGT,-0.1
26,CTTCTCACGTGGTTTG,0.21

row,Sequence,relative binding free energy [kcal/mol]
1,AGTGGCACGTGTATTT,0.08
2,TGGAGCACGTGGCTAT,-0.12
3,TGGGGCACGTGTTATG,-0.07
4,GTGCGCACGTGGACGG,-0.23
5,ATATGCACGTGAGTAA,0.1
6,TTAAGCACGTGTAAAT,-0.01
7,TGGATCACGTGGTAGG,0.01
8,TTATTCACGTGGGGGG,0.17
9,TTAAGCACGTGGCGAG,-0.2
10,GTAATCACGTGTGTCA,0.2
11,GGATTCACGTGGGTCA,0.12
12,AGAGGCACGTGAAGAT,0.15
13,ACTTGCACGTGTGGAT,0.06
14,TGCAACACGTGTGGTA,0.1
15,TTGGGCACGTGCAGAT,-0.03
16,TTCAGCACGTGGCGGG,-0.14
17,TGAGCCACGTGGTTGT,-0.17
18,TTGGACACGTGGTCAT,-0.05
19,CTTGTCACGTGCTTGT,0.01
20,ATGAGCACGTGATGTT,0.04
21,AATGGCACGTGGGGCG,-0.35
22,CATAGCACGTGGTGGG,-0.07
23,CGGTTCACGTGGGTCG,0.13
24,TCGTGCACGTGAGAGT,0.21
25,TCCGTCACGTGGGGGT,-0.08
26,GTGGACACGTGTGATT,0.16

row,Sequence,relative binding free energy [kcal/mol]
1,ATATGCACGTGGTCGG,-0.2
2,TTTCGCACGTGGGTTT,-0.13
3,CTGGTCACGTGTGTGT,0.05
4,GGGTTCACGTGCTTAG,0.44
5,TGTTGCACGTGGCGTA,-0.03
6,ATAAACACGTGGGCTG,-0.04
7,CGTAACACGTGGGGTA,-0.27
8,GATGTCACGTGTGATT,0.29
9,CTAATCACGTGGTAGG,0.16
10,GGCGCCACGTGTCGGG,0.11
11,TATAGCACGTGGATTT,0
12,AGGGTCACGTGTTAAG,0.17
13,TGGGCCACGTGGAAGG,-0.06
14,TTGTACACGTGGAAAC,0.37
15,GCTGGCACGTGAGGAG,0.1
16,TAGGACACGTGTGTGC,0.04
17,CGGAGCACGTGGTGAT,-0.18
18,TAATTCACGTGTTGCT,0.28
19,TGGGGCACGTGGGCAC,-0.35
20,AGATCCACGTGTTTGT,0.09
21,GTGGTCACGTGTGGCA,0.23
22,GGGGGCACGTGTGTTA,-0.01
23,AGGCACACGTGCTTGG,0.03
24,TGTATCACGTGAACTT,0.15
25,GCTTGCACGTGAATGG,0.21
26,GATATCACGTGAGGTC,0.25

row,Sequence,relative binding free energy [kcal/mol]
1,GGTTACACGTGTGGGA,0.32
2,CGTGCCACGTGTAGGG,0.02
3,ACTTGCACGTGGAGTG,-0.09
4,CTCGTCACGTGGTAGT,0.03
5,GCAGTCACGTGGGGGA,0.15
6,AGTGGCACGTGGCGTA,-0.21
7,TAATGCACGTGGGGTG,-0.21
8,TTAGTCACGTGCGTGC,-0.04
9,TCTGGCACGTGGAGTG,-0.09
10,GGCAGCACGTGCGGGT,-0.18
11,ATTACCACGTGATTGT,0.1
12,AGTAGCACGTGGGTCA,-0.32
13,GTAGGCACGTGATCGT,0.06
14,TTATGCACGTGAATCG,0.23
15,ACGGTCACGTGAGTTT,0.37
16,GTAGACACGTGTGCTG,-0.07
17,GGAGCCACGTGTGTAG,-0.15
18,TTTTACACGTGTTTAT,0.16
19,CGGTTCACGTGAGTAT,0.44
20,TTGTTCACGTGTTTCC,0.29
21,TACTTCACGTGTGTTA,0.21
22,GTTGTCACGTGAGCGC,0.36
23,GCATGCACGTGTCGGT,0.07
24,TTTTTCACGTGAAATG,0.5
25,CTTTGCACGTGACGGT,0.01
26,GAAGACACGTGGGAGT,-0.13

row,Sequence,relative binding free energy [kcal/mol]
1,TCTATCACGTGGGGAG,-0.1
2,TAATGCACGTGAAGGG,0.22
3,GGTTTCACGTGATGCG,0.35
4,TCGGTCACGTGCGGGA,0.04
5,TTTTGCACGTGTAGAA,-0.03
6,CCGGGCACGTGGTAGT,-0.19
7,CGGTGCACGTGGGTCT,-0.02
8,TATTGCACGTGGCGTT,-0.15
9,TTCTGCACGTGTGCGG,0.11
10,GGGAGCACGTGCATGG,-0.18
11,ATGTGCACGTGTTGTC,0.07
12,GTGGGCACGTGTAGGA,0.04
13,TTTCGCACGTGACGGG,0.01
14,TTCAGCACGTGAGGAT,0.24
15,GTGGTCACGTGTATGC,0.08
16,GAAGGCACGTGTGCGG,-0.18
17,AGTCGCACGTGATTGT,0.09
18,GATTACACGTGGGGCT,0
19,ATACGCACGTGGTTTA,-0.1
20,ATAATCACGTGAGTTG,0.28
21,ATATTCACGTGCGCGT,0.24
22,TGGAGCACGTGTCAGA,-0.04
23,ACTGGCACGTGCGTGG,-0.26
24,TTTGTCACGTGCCTGT,-0.02
25,ATTGACACGTGGCTTT,-0.18
26,TGTTTCACGTGAGCTG,0.4

row,Sequence,relative binding free energy [kcal/mol]
1,TTTAACACGTGTCTGA,-0.01
2,GGTAGCACGTGGTAAT,-0.16
3,GACGGCACGTGTGCGG,-0.14
4,ACTGGCACGTGGTTTA,-0.11
5,AAGTGCACGTGGTAAT,0.02
6,AAGTGCACGTGCATTG,0
7,GATTGCACGTGGGGTT,-0.08
8,TGAGTCACGTGGTGAA,0.09
9,AAGGTCACGTGCAAGG,0.15
10,AAGGGCACGTGATGGA,-0.05
11,TTCGTCACGTGTGGCT,0.18
12,AAGCGCACGTGCGGGG,-0.21
13,TTAGTCACGTGCGGAA,0.13
14,CTGGACACGTGGGGCT,-0.08
15,TTGGGCACGTGCCCGG,-0.3
16,ATATACACGTGAGTTA,0.2
17,ATGTACACGTGATATA,0.17
18,TGTGTCACGTGTTTTT,0.17
19,ATTATCACGTGTTAAG,0.19
20,ACGTACACGTGGTAGG,0.02
21,TCGGGCACGTGGAGTG,-0.07
22,GGAAACACGTGGGAGT,0
23,AGGGACACGTGCATGG,0.06
24,GTATTCACGTGGGGAT,0.15
25,AGTTCCACGTGGAGTG,0.1
26,GATGGCACGTGGACAG,-0.07

row,Sequence,relative binding free energy [kcal/mol]
1,CTCTGCACGTGGGGGT,-0.14
2,GATGTCACGTGAGGCG,0.22
3,TATCTCACGTGGAGGG,0.23
4,TGTGGCACGTGTATCT,-0.14
5,GGTTTCACGTGCCGTT,0.4
6,CGCGGCACGTGGATGT,-0.09
7,TGGATCACGTGTGGTG,0.13
8,AATTGCACGTGCTGTA,-0.12
9,TCTAGCACGTGAGGTA,0.18
10,CTATACACGTGGGTGT,-0.2
11,CAGTACACGTGGCGGG,-0.09
12,TCAGTCACGTGGCTGG,0.06
13,AAAGGCACGTGTGTAT,0.07
14,TGAGTCACGTGGCAGA,0.15
15,AGGGGCACGTGTTTGT,-0.09
16,ATTAACACGTGCTGTA,0.04
17,GGTCTCACGTGGCTGG,0.16
18,GACGACACGTGGGGGC,0.12
19,TGTGACACGTGAGGTG,0.16
20,TTTATCACGTGAGATG,0.32
21,ATCAGCACGTGTTTTG,-0.07
22,ATGCTCACGTGTGGGA,0.13
23,GTAGCCACGTGTATTT,0.07
24,ATCTGCACGTGGAGTG,0.12
25,GCTTACACGTGGCGTG,0.16
26,GGGGTCACGTGCTTAT,-0.01

row,Sequence,relative binding free energy [kcal/mol]
1,AACGGCACGTGGGGGA,-0.26
2,TGTGTCACGTGTCGAA,-0.01
3,GTAATCACGTGGAGGT,0.27
4,CGTATCACGTGAGAGG,0.27
5,TAGTGCACGTGAGGTT,0.22
6,TTTCTCACGTGTAGGT,0.26
7,GTAGTCACGTGTGTTG,0.08
8,GTCAGCACGTGGTGTG,-0.05
9,GCTGTCACGTGGTGGC,0.06
10,AGGGGCACGTGTTAAG,-0.08
11,GCGTTCACGTGGGTAT,0.23
12,TTGGACACGTGGCATT,0.03
13,GATGGCACGTGTGTGT,0.01
14,TGCATCACGTGGGTTG,0.09
15,GTTAGCACGTGGTGAC,-0.1
16,TTGGCCACGTGTTGAT,-0.13
17,TTTAACACGTGCGAGG,-0.01
18,GGAATCACGTGTTTCG,0.25
19,GTCATCACGTGGGGTA,0.02
20,CTTTACACGTGTGTTT,0.07
21,TTGAACACGTGGGGTG,-0.18
22,AGAGGCACGTGGTGGA,-0.14
23,GGTGTCACGTGATGCG,0.23
24,TATAACACGTGGGAAA,-0.02
25,GCGGGCACGTGAAGCG,0.32
26,GACTGCACGTGGTTAG,0.04

row,Sequence,relative binding free energy [kcal/mol]
1,AGTAGCACGTGTACTT,0.1
2,ATGTACACGTGATTAG,0.21
3,GTATTCACGTGAGAGT,0.32
4,GTGAGCACGTGGGACA,-0.18
5,ATTTGCACGTGCTGGT,0.03
6,AGAGGCACGTGTTCGG,-0.2
7,TCTTACACGTGTTAGT,0.25
8,CTCATCACGTGGTTGG,0.09
9,TTTACCACGTGTAGGT,0.09
10,GGTTTCACGTGGAAAT,0.45
11,GATGTCACGTGGTACT,0.16
12,GTAGACACGTGGGTCT,-0.14
13,TGGGTCACGTGTGATA,0.23
14,TTATGCACGTGTGCCT,0.03
15,ATTTTCACGTGGACGA,0.27
16,GGTTACACGTGATTGT,0.16
17,GTCATCACGTGTTGGG,0.21
18,AGTGGCACGTGATGGT,0.02
19,AGGGTCACGTGCGCTG,-0.14
20,TGCTTCACGTGGGTGT,0.03
21,TACATCACGTGAGGTG,0.31
22,CTAGACACGTGTTAGG,0.08
